Measured values taken from paper PMC12040169 (PLOS Biology, 2025).
Some of the results follow.

system: T1, C. trachomatis L2/434/Bu expressing GFP (CTL2-GFP); set-up: species or system HeLa; C. trachomatis total inclusion area by high-content imaging, normalised to DMSO; settings: total inclusion area; 28.5 h, 10 µM; inhibitor
T1 construct: L2/434/Bu GFP intracellular growth in HeLa cells
How it was run: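 Post-fluorescence-read fixation, DNA staining with Hoechst and high-content imaging; GFP inclusion area and number per well, and nuclei counts, used as proxies for bacterial growth and host viability.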

| SMILES | % of control remaining |
| --- | --- |
| Cc1n[nH]c(C)c1CC(=O)NC(Cc1ccsc1)c1ccccn1 (stereo not shown) [CBK285271] | 134.779 |
| O=C(O)c1cccc(NS(=O)(=O)c2cccc(Cl)c2Cl)c1 [CBK155686] | 83.0495 |
| COc1cc(S(=O)(=O)N2CCN(S(=O)(=O)c3cccc([N+](=O)[O-])c3)CC2)ccc1Cl [CBK266285] | 98.6535 |
| CN(C)Cc1c(O)ccc2c(=O)c(Oc3ccc(-c4ccccc4)cc3)c(C(F)(F)F)oc12 [CBK264519] | 112.257 |
| Cc1cc2cc(C(=O)N3CCC(c4c(C(=O)NC(C)C)sc5ccccc45)C3)ccc2o1 (stereo not shown) [CBK285873] | 24.2608 |
| Cc1nc(SCCC(=O)Nc2ccccc2C#N)nc2cc3c(cc12)CCC3 [CBK268812] | 107.158 |
| COc1ccc(C(=O)Nc2nc3c(OC)ccc(C)c3s2)cc1 [CBK287615] | 78.1267 |
| O=S(=O)(Nc1nc(-c2sccc2Cl)cs1)c1cc(Br)c(Cl)s1 [CBK200030] | 101.917 |
| CN1C[C@H]2N(C)C(=O)c3ccccc3C(=O)[C@@]2(C)C1 [CBK283482] | 118.501 |
| O=C(O)c1cccc(-n2ncc(-c3ccsc3)n2)c1 [CBK112859] | 102.611 |
| COCCn1c(=O)n(Cc2ccccc2F)c2cccnc21 [CBK283965] | 106.837 |
| COCc1ccc(C(=O)N2CCC(c3cc4cnccc4[nH]3)CC2)o1 [CBK283073] | 102.827 |
| Cc1ccc(C)c(NC(=O)N[C@@H](CC(C)C)C(=O)O)c1 [CBK286678] | 76.7825 |
| O=C(CSCC(=O)Nc1ccc2ccccc2c1)NCC1CCCO1 (stereo not shown) [CBK058183] | 70.9214 |
| O=C(/C=N/O)Nc1cc(C(F)(F)F)ccc1Cl [CBK288405] | 61.9704 |
| CCCC1C2C=CC(C2)C1/C=N/O (stereo not shown) [CBK009671] | 95.3269 |
| Cc1ccc(C(=O)COC(=O)CCN2C(=O)C3C4CCC(C4)C3C2=O)cc1[N+](=O)[O-] (stereo not shown) [CBK264096] | 103.261 |
| Cn1c(O)c(CCNc2cc([C@H]3C[C@@H](O)C3)nc(N)n2)cnc1=O [CBK306956] | 40.8859 |
| CC1=NN(c2ccc(S(N)(=O)=O)cc2)C(=O)/C1=C\c1ccc(-c2ccc(S(N)(=O)=O)cc2)o1 [CBK263476] | 95.4513 |
| O=C(O)CC1SC(Nc2ccccc2F)=NC1=O (stereo not shown) [CBK059096] | 78.918 |
| CCNc1cncc(-c2ccc(C(N)=O)cc2)n1 [CBK065414] | 95.1386 |
| Nc1ccc2ccc(Cl)nc2n1 [CBK039198] | 3.9745 |
| O=C(NCCN1CCC(O)(c2ccc(F)cc2)CC1)c1cccs1 [CBK283163] | 98.5657 |
| COCCCNCC#CCOc1ccccc1OC [CBK267419G] | 92.705 |
| O=C(O)C1C2C=CC(O2)C1C(=O)NCC1CCCO1 (stereo not shown) [CBK286917] | 82.8003 |
| Cc1ccc([N+](=O)[O-])cc1NC(=O)CN(Cc1ccc(Cl)cc1)S(C)(=O)=O [CBK267981] | 65.7807 |
| COc1cc(C#N)ccc1Oc1ccc([N+](=O)[O-])cc1C(F)(F)F [CBK002544] | 83.6713 |

| SMILES | % of control remaining |
| --- | --- |
| CCC1CCCCN1C(=O)c1c(Cl)cccc1Cl (stereo not shown) [CBK081303] | 95.887 |
| COc1ccc(C(O)CNC(C)C)c2c(C)c(C)oc12 (stereo not shown) [CBK011885C] | 79.3355 |
| CC(SCC(=O)Nc1ccc(F)cc1)c1nc2ccccc2c(=O)[nH]1 (stereo not shown) [CBK269200] | 75.5366 |
| CCCC(=O)c1ccc(S(=O)(=O)N2CCCN(Cc3c[nH]nc3-c3ccccc3)CC2)cc1 [CBK062916] | 49.3429 |
| COc1ccc(CC(=O)N2CCCC(c3cc4ncccc4[nH]3)C2)cc1 (stereo not shown) [CBK283418] | 103.576 |
| CCNc1cc(N2CCN(C)CC2)ccc1NS(=O)(=O)c1ccc(F)cc1F [CBK001496C] | 91.2982 |
| Cc1ccc(-c2n[nH]c(=S)n2CCC(=O)N2CCC(c3c[nH]c4ccccc34)CC2)cc1 [CBK296739] | 84.8294 |
| O=C1/C(=C/c2c(NCCc3ccccc3)nc3ccccn3c2=O)SC(=S)N1Cc1ccco1 [CBK264674] | 111.399 |
| COc1ccc([N+](=O)[O-])cc1NC(=O)CSCc1ccc(Br)cc1 [CBK268272] | 111.374 |
| N[C@@H]1CCCN(C(=O)C2CC2)[C@H]1c1ccccc1F [CBK281563] | 76.1158 |
| O=C(c1ccco1)N1CCN(C(=O)c2ccco2)CC1 [CBK068272] | 98.9097 |
| CC1(C)NC(=O)N(CCCC(=O)NCc2coc(-c3cccs3)n2)C1=O [CBK237157] | 86.7347 |
| O=C1c2ccc(OCCOc3ccc4c(c3)C(=O)N(c3ccc(O)cc3)C4=O)cc2C(=O)N1c1ccc(O)cc1 [CBK262668] | 99.7392 |
| CC1CC(N(C(=O)c2cccc(Br)c2)c2ccccc2)c2ccccc2N1 (stereo not shown) [CBK262966] | 106.726 |
| CC[C@H](Cn1c(=O)oc2ccccc21)NC(=O)Cc1ccsc1 [CBK284543] | 99.3412 |
| CC(C)Oc1ccc(C(F)(F)F)cc1N [CBK028895C] | 49.3509 |
| O=C(CNC(=O)c1ccccc1)N/N=C/c1ccc(Br)cc1 [CBK260957] | 104.999 |
| COc1ccc(-c2ccc(OC)cc2C(=O)Nc2ccc(Cn3cncn3)cc2)cc1 [CBK285588] | 79.4874 |
| COc1ccc(NC2=CC(=O)CC(c3ccc(C)cc3)C2)c(OC)c1 (stereo not shown) [CBK264845] | 94.0378 |
| Cc1cc(N2CCN(C(=O)c3c[nH]c(=O)[nH]3)CC2)nc(C(C)C)n1 [CBK296681] | 94.0273 |
| Cc1cc(C)c(OCCOCCN2CCNCC2)c(Br)c1 [CBK266079G] | 75.674 |
| Cc1cc2nc(SCCNC(=O)c3ccc(Cl)cc3)nc(C)c2cc1C [CBK266223] | 106.315 |
| Cn1nc(C2CCCC2)cc1[C@H]1CN2CC[C@H]1C[C@@H]2CNS(=O)(=O)c1ccccc1 [CBK288741] | 80.485 |
| O=C(NCc1ccccc1)c1ccc(N2C(=O)CSC23C(=O)Nc2ccccc23)cc1 (stereo not shown) [CBK093476] | 79.9702 |
| Cc1nc(CCNC(=O)N2CCC(Oc3cccnc3)CC2)sc1Cl [CBK306636] | 80.2087 |
| O=C1CC2(CCN(Cc3ccc(C(F)(F)F)cc3)CC2)CN1 [CBK283359] | 102.788 |
| Cc1cccc(=O)n1CCCNc1cc(C2CCOC2)nc(N)n1 (stereo not shown) [CBK307030] | 69.0877 |

| SMILES | % of control remaining |
| --- | --- |
| Cc1ccnc(NCC2CCN(CC(=O)NC3(C#N)CCCC3)C2)c1 (stereo not shown) [CBK306128] | 72.84 |
| O=C(Nc1cccc2cc[nH]c12)c1cc(F)c(Cl)cc1F [CBK160080] | 103.526 |
| CC(=O)c1ccc(NC(=O)c2cccc(Cl)c2)cc1 [CBK033939] | 46.1143 |
| CC(=O)Nc1cccc(-n2cnnc2SCC2CCCCC2)c1 [CBK305054] | 27.4847 |
| O=C(Cn1c(C2CCCNC2)cc2cccnc21)NC1CCCC1 (stereo not shown) [CBK285059] | 73.1657 |
| O=C(Nn1cnnc1)c1ccc(C(=O)Nn2cnnc2)cc1 [CBK261111] | 103.576 |
| CCOc1cccc(-c2cncc(NC(C)CCCC(C)(C)O)n2)c1 (stereo not shown) [CBK066020] | 175.595 |
| C1=C(CNC(Cc2cccs2)c2nccs2)COCC1 (stereo not shown) [CBK284682] | 53.2908 |
| CC1=C(C(=O)Nc2ccccc2)C(c2cccs2)C(C#N)=C(SCC(=O)c2ccc(Br)cc2)N1 (stereo not shown) [CBK261384] | 65.5073 |
| COc1ccccc1N1C(=O)[C@H]2N=C(C(=O)c3cnccn3)N[C@H]2C1=O [CBK021406] | 102.854 |
| CN(CC(=O)NC1CCCCC1)S(=O)(=O)c1ccc(F)cc1 [CBK091832] | 71.0599 |
| O=C(OCn1nnc2ccccc2c1=O)c1cccc([N+](=O)[O-])c1 [CBK264887] | 80.9706 |
| CC(C)Cc1csc(C2CN3CCCC3CO2)n1 (stereo not shown) [CBK304807] | 71.2017 |
| Cc1ccc(S(=O)(=O)NC(=O)N(Cc2ccccc2)Cc2ccco2)cc1 [CBK269524] | 103.205 |
| CC(C)c1ccc(S(=O)(=O)n2c(=O)n(CCc3c[nH]c4ccccc34)c3ccccc32)cc1 [CBK106518] | 82.3792 |
| Cn1c(N2CC[C@H](O)C2)nc2cc(C(=O)NC[C@@H]3CCCO3)ccc21 [CBK307433] | 74.9818 |
| Cc1cccc(-c2ccc(CC3(C(=O)NC(C)C)CCN(C(=O)C(C)(C)C)CC3)cc2)c1 [CBK285758] | 118.809 |
| Cn1nccc1C(=O)Nc1nc(-c2ccccc2)cs1 [CBK287833] | 68.5673 |
| COc1ccc(CC(=O)NCc2nc(-c3ccc(OC)cc3)no2)cc1 [CBK270043] | 83.9033 |
| CC(C)Cn1c(=O)[nH]c2ncc(-c3cncnc3)nc21 [CBK064177] | 105.724 |
| O=C(c1cccnc1)N1CCN(Cc2cccc([N+](=O)[O-])c2)CC1 [CBK263020] | 84.9764 |
| COc1ccccc1Oc1nnnn1-c1ccc(C(N)=O)cc1 [CBK267988] | 115.867 |
| COC(=O)c1ccc(Cl)cc1N(Cc1c(F)cccc1Cl)S(C)(=O)=O [CBK021351] | 87.0725 |
| CCOCCNS(=O)(=O)c1ccc(C(C)(C)CC)cc1 [CBK044655] | 92.2342 |
| Cc1ccc(C2(C(=O)N3CCC(O)(c4ccccn4)CC3)CC2)cc1 [CBK283754] | 112.614 |
